Assay results reported in PubChem BioAssay AID485360 (National Center for Advancing Translational Sciences (NCATS), 2010).
The whole screen tested about 230,000 compounds, of which about 1,500 (0.65%) were called active. Inconclusive results, whose numbers are uncertain, are shown with a selection of clear calls. Calls come from the whole dose curve; as a rule, active = well fitted inhibition curve with a large enough effect; inconclusive = small, poorly fitted or top-dose-only effect; inactive = no such curve, though single readings can be large or run the other way. Where the call is inconclusive, the potency comes from a doubtful curve fit.

biological target: Lethal(3)malignant brain tumor-like protein 1 (Homo sapiens) (UniProt Q9Y468); assay: qHTS Assay for the Inhibitors of L3MBTL1; conditions: AlphaScreen L3MBTL1–H3K9me1 peptide binding; activity, negative = inhibition: at 57.1 µM (top of the series); note: nearly all actives have a fitted effect of over 60% in size
Sequence of UniProt Q9Y468 (Q9Y468 whole entry, looked up): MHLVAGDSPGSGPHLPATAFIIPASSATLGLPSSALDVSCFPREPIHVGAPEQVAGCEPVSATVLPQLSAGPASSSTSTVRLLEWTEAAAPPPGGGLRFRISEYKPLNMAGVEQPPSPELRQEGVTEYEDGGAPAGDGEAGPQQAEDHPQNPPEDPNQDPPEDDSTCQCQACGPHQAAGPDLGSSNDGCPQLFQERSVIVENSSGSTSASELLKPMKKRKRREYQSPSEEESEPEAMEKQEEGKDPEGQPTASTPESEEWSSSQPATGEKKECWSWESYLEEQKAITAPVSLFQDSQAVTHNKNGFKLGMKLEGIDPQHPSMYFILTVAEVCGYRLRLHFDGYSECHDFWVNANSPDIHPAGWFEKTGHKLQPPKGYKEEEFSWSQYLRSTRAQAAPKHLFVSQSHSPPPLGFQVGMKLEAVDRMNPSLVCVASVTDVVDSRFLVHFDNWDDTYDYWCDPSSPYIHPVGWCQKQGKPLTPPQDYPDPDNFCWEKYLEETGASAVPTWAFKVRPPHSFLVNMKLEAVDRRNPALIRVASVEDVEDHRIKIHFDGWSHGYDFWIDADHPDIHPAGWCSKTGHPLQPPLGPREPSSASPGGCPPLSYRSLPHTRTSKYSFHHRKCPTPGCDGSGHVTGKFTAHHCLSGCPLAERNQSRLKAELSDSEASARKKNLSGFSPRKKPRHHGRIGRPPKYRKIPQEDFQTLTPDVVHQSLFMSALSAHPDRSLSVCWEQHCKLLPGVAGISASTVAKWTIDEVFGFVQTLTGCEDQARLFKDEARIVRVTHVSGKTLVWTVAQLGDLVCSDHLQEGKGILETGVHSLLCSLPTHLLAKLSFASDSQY
Procedure, shortened: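 AlphaScreen proximity signal between nickel-chelate acceptor and streptavidin donor beads (final 10 ug/mL) reports binding of 50 nM L3MBTL1 to 75 nM biotin-H3 K9me1 peptide; complex incubated with compounds 30 min at room temperature; cefsulodin titration as control.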
% is set by controls: 0 for no effect and ±100 for the full control effect; potency is the fitted concentration of half-maximal effect; tags give direction and shape of the fitted curve.

SMILES	Potency	activity, negative = inhibition
CNC(=S)N/N=C/c1ccc(-c2ccc(C(=O)O)cc2)o1	inconclusive: 39.8 µM [inhibitor, single point]	–
COc1cc(NC(=S)N2CCN(C(=O)c3ccco3)CC2)c(OC)cc1Cl	inactive	–
CN(C)c1ccc(NC(=O)c2cccc(C(=O)Nc3ccc(N(C)C)cc3)n2)cc1	inconclusive: 17.8 µM [inhibitor, partial curve]	–
Oc1ccc(O)c(Cc2nc3ccccc3s2)c1	inconclusive: 17.8 µM [inhibitor, single point]	–
COc1cc(/C=C2\SC(=O)N(Cc3ccc(F)cc3)C2=O)cc([N+](=O)[O-])c1O	inconclusive: 8.91 µM [inhibitor, partial curve]	–
Cc1csc(=Nc2ccc(S(=O)(=O)N3CCOCC3)cc2)n1Cc1ccco1	inconclusive: 39.8 µM [inhibitor, single point]	–
COCCN=c1scc(-c2cc(OC)ccc2OC)n1/N=C/c1c[nH]c2ccccc12	inconclusive: 39.8 µM [inhibitor, single point]	–
COc1ccccc1N(CC(=O)NC1CCCC1)C(=O)CCC(=O)Nc1cc(C)on1	inconclusive: 6.31 µM [inhibitor, single point]	–
COc1cc(/C=C2\SC(=O)N(c3ccccc3Cl)C2=O)cc([N+](=O)[O-])c1O	inconclusive: 3.16 µM [inhibitor, full curve]	–
CC(=O)COC(=O)C1CCN(S(=O)(=O)c2cc([N+](=O)[O-])ccc2Cl)CC1	active: 28.2 µM	–
C/C(=N/N1CCN(c2ccccc2)CC1)c1cccc([N+](=O)[O-])c1	inconclusive: 25.1 µM [inhibitor, partial curve, poor fit]	–
NC(=S)NN=C1C2CC3CC(C2)CC1C3	inactive	–
O=C(OCc1nnc(-c2ccccc2)o1)c1ccc([N+](=O)[O-])s1	inconclusive: 25.1 µM [inhibitor, single point]	–
CCOCCCNC(=O)/C(C#N)=C/c1cc(C)c(O)c(C)c1	inactive	–
CC(C)Cc1nnc(NC(=O)Cc2cccs2)s1	inconclusive: 22.4 µM [inhibitor, single point]	–
CC1=C(C(N)=O)C(c2cccs2)n2nc(-c3cccc(C)c3)nc2N1 (stereo not drawn)	inactive	–
Cc1cc(C)c2nc(SCC(=O)NCC3CCCO3)c(C#N)cc2c1 (stereo not drawn)	inconclusive: 10 µM [inhibitor, partial curve, poor fit]	–
Cc1scc(C(=O)N/N=C/c2ccsc2)c1C	inactive	–
CCNc1ccc2noc3c2c1C(=O)c1ccccc1-3	inconclusive: 12.6 µM [inhibitor, partial curve]	–
Cc1cc(C(=O)N/N=C/c2cccc([N+](=O)[O-])c2O)n[nH]1	inconclusive: 31.6 µM [inhibitor, single point]	–
CCO[C@@H]1OC(C(=O)N2CCN(Cc3ccc4c(c3)OCO4)CC2)=C[C@H](c2ccc(Br)cc2)[C@H]1CCCO	inconclusive: 0.708 µM [inhibitor, partial curve, poor fit]	–
Cc1cc(N/N=C/c2ccc([N+](=O)[O-])o2)nc2ccccc12	inconclusive: 3.55 µM [inhibitor, partial curve, poor fit]	–
O=C(CCc1nc2ccccc2c(=O)[nH]1)Nc1ccc(F)c([N+](=O)[O-])c1	inconclusive: 25.1 µM [inhibitor, single point]	–

SMILES	Potency	activity, negative = inhibition
O=C(Nc1nnc(-c2ccccn2)o1)c1cccc(Br)c1	inconclusive: 0.708 µM [inhibitor, single point]	–
Nc1ccc(N(CCO)CCO)cc1	active: 12.6 µM	–
C=C(C)C(=O)Nc1ccc(OC(F)(F)C(F)F)c(NC(=O)C(=C)C)c1	inconclusive: 39.8 µM [inhibitor, single point]	–
Cc1cc([N+](=O)[O-])c2c(c1C)C1C=CCC1C(c1ccccn1)N2 (stereo not drawn)	inconclusive: 39.8 µM [inhibitor, single point]	–
N#CCC(=O)N/N=C/c1cc([N+](=O)[O-])ccc1N1CCOCC1	inconclusive: 20 µM [inhibitor, partial curve]	–
CCn1c(CSCc2ccccc2)n[nH]c1=S	–	inactive: 5.93% [at 11.4 µM]
CCc1cccc(N=c2c([N+](=O)[O-])nn(-c3ccc4c(c3)OCCO4)n2O)c1	inconclusive: 8.91 µM [inhibitor, partial curve]	–
O=[N+]([O-])c1ccc(Nc2ccccc2O)c2nonc12	inconclusive: 35.5 µM [inhibitor, single point]	–
NC1CCN(c2c(F)cc3c(=O)c(C(=O)O)cn(C4CC4)c3c2Cl)C1 (stereo not drawn)	inactive	–
CSCCC(NS(=O)(=O)c1ccc2c(c1)oc(=O)n2C)C(=O)NC1CCCCC1 (stereo not drawn)	inconclusive: 39.8 µM [inhibitor, single point]	–
CN1CCN(c2ccccc2NC(=O)c2ccc(N3CCCCC3)c([N+](=O)[O-])c2)CC1	inconclusive: 12.6 µM [inhibitor, partial curve]	–
COc1ccc(C(=O)N/N=C/c2ccc(OC)c(CN3CCCc4ccccc43)c2)cc1	inconclusive: 44.7 µM [inhibitor, partial curve, poor fit]	–
Cc1c(C)c2cccnc2c2ncccc12	active: 0.794 µM	–
O=C(CN1CCN(Cc2ccccc2)CC1)Nc1ccccc1-c1ccccc1	inactive	–
Cc1ccccc1NC(=S)N(Cc1cccnc1)Cc1ccccc1Cl	inconclusive: 2.51 µM [inhibitor, partial curve, poor fit]	–
COc1cccc(NC(=O)c2ccco2)c1	inconclusive: 5.62 µM [inhibitor, single point]	–
COc1ccc(-c2nnc(SCC(=O)Nc3cc(C)on3)n2N)cc1OC	inactive	–
CCC(=O)NC(C)c1cc(Cl)c2cccnc2c1O (stereo not drawn)	inconclusive: 35.5 µM [inhibitor, single point]	–
O=C1NC(=S)N/C1=C\c1ccccc1OCc1ccc(C(=O)O)cc1	inactive	–
CN(NS(C)(=O)=O)c1ncc(C(F)(F)F)cc1Cl	inconclusive: 10 µM [inhibitor, partial curve, poor fit]	–
Cc1ccccc1OCc1nnc(SC(C)C(=O)O)n1Cc1ccccc1 (stereo not drawn)	inconclusive: 6.31 µM [inhibitor, single point]	–
COc1ccc2c(CC(=O)OCC(=O)Nc3ccc(C)cc3)coc2c1	inconclusive: 28.2 µM [inhibitor, single point]	–
Cc1ccc(C)c(OCCCN2CCCC2)c1	inconclusive: 39.8 µM [inhibitor, single point]	–

SMILES	Potency	activity, negative = inhibition
O=S(=O)(Nc1nccs1)c1ccc(NCc2cc(Br)cc(Br)c2O)cc1	inconclusive: 25.1 µM [inhibitor, single point]	–
CC(=O)Cn1nnc2sc3c(c2c1=O)CCC(C(C)(C)C)C3 (stereo not drawn)	inactive	–
Fc1ccc(-[n+]2nc(Nc3ccccc3)sc2-c2c(Cl)cccc2Cl)cc1	inconclusive: 17.8 µM [inhibitor, single point]	–
O=C(O)C1C2C=CC(O2)C1C(=O)Nc1ccc(S(=O)(=O)N2CCc3ccccc32)cc1 (stereo not drawn)	inconclusive: 3.98 µM [inhibitor, single point]	–
COCCNC(=O)/C(C#N)=C/c1ccc(OC(=O)c2cccs2)c(OC)c1	inactive	–
Cc1[nH]nc2ncc(C(=O)c3ccccc3O)cc12	inactive	–
Cn1c(COc2ccc(Cl)cc2)nc2ccccc2c1=O	inconclusive: 35.5 µM [inhibitor, single point]	–
O=C(NCCCn1ccnc1)c1ccc(N2CCCCCC2)c([N+](=O)[O-])c1	inconclusive: 25.1 µM [inhibitor, partial curve, poor fit]	–
Cc1occc1C(=O)N1CCN(C(c2ccccc2)c2ccccc2)CC1	inconclusive: 39.8 µM [inhibitor, single point]	–
Cc1nn(Cc2ccccc2)c(C)c1NC(=O)CSc1nc(C2CC2)nc2c1cnn2-c1ccccc1	inconclusive: 7.08 µM [inhibitor, single point]	–
Cn1c(SCC(=O)Nc2ccc(F)cc2)nnc1-c1cccnc1	inconclusive: 39.8 µM [inhibitor, single point]	–
O=c1c(O[C@@H]2O[C@H](CO)C(O)C2O)c(-c2ccc(O)c(O)c2)oc2cc(O)cc(O)c12 (stereo partly drawn)	active: 14.1 µM	–
CC1OC(Oc2ccc3ccc(=O)oc3c2-c2c(O)ccc3cc(Oc4ccc5ccc(=O)oc5c4)c(=O)oc23)C(O)C(O)C1O (stereo not drawn)	inconclusive: 39.8 µM [inhibitor, single point]	–
CCOC(=O)c1ccc(N/N=C/c2cc(Br)cc([N+](=O)[O-])c2O)cc1	inconclusive: 2 µM [inhibitor, full curve, poor fit]	–
CCn1ccnc1CNC(=O)CC1C(=O)NCCN1CC(c1ccccc1)c1ccccc1 (stereo not drawn)	inactive	–
COc1ccc(C/C(C)=N/NC(=S)Nc2ccccc2F)cc1	inactive	–
O=C(CN1CCOCC1)N1CCN(S(=O)(=O)c2ccccc2)C1c1ccccc1 (stereo not drawn)	inconclusive: 6.31 µM [inhibitor, single point]	–
Cc1ccc(NC(=O)Nc2cccnc2)cc1	–	inconclusive: -92.1% [inhibitor]
CCc1ccc(/C=C(/C#N)C(N)=S)s1	inconclusive: 39.8 µM [inhibitor, single point]	–
CCCNC(=O)Nc1ccccc1SC	inactive	–
Cc1nc(NC(=O)C2CC2)sc1C(=O)Nc1ccc(Br)cc1	inconclusive: 6.31 µM [inhibitor, single point]	–
CC(C)(C)c1ccc(C2CC2C(=O)N/N=C\c2ccc[nH]2)cc1 (stereo not drawn)	inconclusive: 8.91 µM [inhibitor, partial curve]	–
